Results: the supplement of paper PMC3334620
Over roughly 33,000 sequences, “E-score (-0.5 to 0.5)” has its median near -0.017; the highest 2% begin near 0.3. This is one part of the list.

Target: T1, Sut1 (UniProt P53032)
T1 sequence: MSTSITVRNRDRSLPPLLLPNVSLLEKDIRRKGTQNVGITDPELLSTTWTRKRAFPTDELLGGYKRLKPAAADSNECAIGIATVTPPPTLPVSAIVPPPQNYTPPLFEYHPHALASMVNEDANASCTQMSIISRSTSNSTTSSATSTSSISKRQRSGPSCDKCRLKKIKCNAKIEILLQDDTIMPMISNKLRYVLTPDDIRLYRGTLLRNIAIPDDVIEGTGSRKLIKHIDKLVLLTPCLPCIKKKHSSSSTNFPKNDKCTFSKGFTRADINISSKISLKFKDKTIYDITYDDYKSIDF
Experiment: PBM E-score (8-mer binding enrichment) (E-score (-0.5 to 0.5)); higher = stronger / more preferred TF binding; most listed sequences are background and not binding sites
Details: protein concentration: 200 nM; construct: GST-full length
Method in brief: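 For each ungapped eight-base word taken together with its reverse complement, the Universal PBM Analysis Suite assigned an E-score. Binding data came from GST-tagged yeast transcription factors, applied at about 100-200 nM, on universal all-10-mer Agilent arrays made double-stranded by primer extension. Fluorescent anti-GST marked bound protein, and scans were normalised with masliner.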

Sequence	PBM E-score
GTGAGAAA	0.214
CCGCCAAC	-0.121
AGAGAGGA	-0.219
CTTAAGCA	0.0326
ATTTCTGC	0.192
CCCGCATA	-0.0197
GCCGTACA	0.086
CAGATAAC	0.081
ACTCGTGG	-0.221
CTCTCAGA	-0.139
AGCCAATG	-0.0122
ACCGTTAG	0.00367
CCTATTAA	0.087
AATATGAC	0.142
ACCGGTAA	-0.0335
GTGTCGTA	-0.155
CCCTGCCG	-0.232
GAGGAGGA	-0.154
AATTATTG	0.173
AAACTAGA	0.0134
CTCTACTC	-0.0336
AATTCCCA	0.0113
GTTAGAGA	-0.112
AGAACTTA	0.216
ACCTAGGG	-0.141

Sequence	PBM E-score
ATAGGTAC	0.177
CTTTCGAA	0.0233
AGACCATG	-0.363
GATGGCTA	0.0396
TGAACACA	0.0445
TAAGAGAA	0.0235
AGTCATAG	-0.181
CGTCAGCC	0.0636
ATAATACA	0.275
CGAACAAC	0.213
ATAGTCCG	0.473
GATGGGCC	-0.23
GATGAACC	-0.0422
ATGTAACG	0.18
AACTGGGG	-0.145
CAGCCAAG	-0.167
ATACTACC	0.0381
AAAGACAC	0.13
CCCTTTCG	0.0903
AACTTCAC	0.232
AGTTCTAG	0.0928
AGGCTAGC	-0.2
CCACATAG	-0.0972
AAAGTCAC	0.079
CCCCCTAA	-0.175

Sequence	PBM E-score
TCACTACA	0.186
TACCAATA	0.0899
AAAAAGCA	0.00986
GAGTTCAC	0.0677
AAAGGATG	-0.0885
GGACCGCC	-0.195
ACCGTGCT	-0.233
AGTATTGG	0.032
CAGGTATG	-0.0447
TCGGATCA	0.119
CTCCTGAC	-0.0811
CGCTCGAC	-0.346
CTTAGCGC	0.0661
CAGTAAGG	-0.109
AGAACGAC	-0.00816
AAACGAAT	0.136
AGCGTCTG	-0.211
ATCGTTCC	-0.174
TATTCAGA	0.12
ACCCTTAG	-0.214
ATATCACA	0.024
AAACGTAA	0.179
CACGGGTA	-0.251
CAAGGGAC	-0.305
AGATGGTA	0.0768

Sequence	PBM E-score
CTGCTAAA	0.0119
CGTGGCGC	-0.19
AGTTACAT	-0.00161
GCGGGACA	-0.159
TGCAAGAA	0.217
CCTCCGAG	0.0578
GGATCGGA	0.277
GAATGGAA	-0.00112
AAGGGTAA	-0.192
CCGAACGC	0.137
ACACGAGG	-0.221
CCAGAGGA	-0.196
AAATCAGG	0.0614
GATGGTCA	0.025
CGAAATCG	0.111
CTGAACAA	0.138
CTTAGATC	-0.0468
CGCTCCCG	-0.314
CTGTGCCA	-0.258
CATGGACG	-0.0757
CGCGCCGC	-0.0461
ACCAACCC	-0.212
AGAATTAT	0.218
ACAGCTGA	-0.157
ACGTCGGA	0.285

Sequence	PBM E-score
CTTAAAAA	0.101
AGGTTCAG	-0.0444
CTTCCTCC	-0.165
AACGCGTG	-0.0703
CTAAGCTA	0.043
AAGTCACC	-0.0436
AGTCGGGC	-0.115
ACTGCTCC	-0.0101
GGAGCTGA	0.203
GAAACGGA	0.284
AAGCAGTG	-0.117
GGCCACAA	-0.0979
CGAAGCCC	-0.0968
CGCAGGCC	-0.14
CGCGCGTC	0.11
CGCAGCGA	-0.16
ATATGAGG	-0.0891
ATTGTCGC	-0.0361
CCTCTATA	-0.0858
ACGAAAAA	0.106
CCCCGCAG	-0.161
GGGTCCCA	-0.307
CCGGCACG	0.00357
AAAGCTAG	0.00596
CTCGAGGC	-0.229

Sequence	PBM E-score
CGGCTAAG	-0.0579
ACTGTATG	0.0934
CGGCCAGA	-0.104
ACGGCTAG	-0.281
AACCCATT	0.143
CCTGATGC	0.0278
GGTGACTA	-0.0599
ATACCCAG	-0.271
ATTGAACA	0.134
CCCGAGAA	0.157
AAGAGTCG	0.00242
AGGTGACG	-0.219
CGTGTAGA	0.026
GGGATCCA	-0.0859
CACGTCAC	0.00874
ATATAACG	0.299
CGTACGGC	-0.194
TGCGAGCA	-0.072
CAATATAA	0.308
AAGACAAC	0.243
GCACCTGA	-0.233
GCAAGGAC	-0.1
GCGGAAAA	0.174
ACCATGAC	-0.0527
AAGTCTAG	-0.0617

Sequence	PBM E-score
ATTTGACC	0.0463
ACACAGTA	-0.0509
ACCCTGAT	-0.266
ACAGAACT	0.0341
AACGATGG	-0.00089
CTGATATC	0.0296
AATCTAAA	0.241
AGATGAGA	0.00604
ATAAGGGC	-0.0567
ATCACCAC	0.164
AGGCAAAC	-0.0553
ACTTAGCG	0.0233
CAGTAGTC	-0.287
GTCGAACA	-0.0651
ACTTTGAA	0.252
CACCGCTC	0.0294
ATGATATG	0.241
GTGCACGA	-0.157
CCTTCTCG	-0.131
GGAGTGAC	0.254
CAGAGAGG	-0.375
CTCTTGGA	-0.0267
